# Source: PubChem BioAssay AID1963576 (National Center for Advancing Translational Sciences (NCATS), 2024)
# Out of some 46,000 compounds screened, about 60 (0.1%) were called active. About 3% were inconclusive and are not listed. Calls come from the whole dose curve; as a rule, active = well fitted inhibition curve with a large enough effect; inconclusive = small, poorly fitted or top-dose-only effect; inactive = no such curve, though single readings can be large or run the other way. This is one part of the list.
# Assay: Primary qHTS assay for Inhibitors of ovarian cancer metastasis using an organotypic tumor microenvironment (TME) model.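 For Potency: count of GFP cancer cells still attached after washing and fixation.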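 For activity change, negative = inhibition: plate controls were DMSO wells for no effect and tomatine positive control wells for full effect.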 Note: nearly all actives have a fitted effect of over 65% in size.
# Details: SKOV3ip1-GFP adhesion/invasion on 3D omental model, fluorescence; series mostly up to 45.8 µM; activity change, negative = inhibition: at the top concentration
# Outline: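 Primary human omental fibroblast/mesothelial 3D culture pre-formed 48 h. SKOV3ip1-GFP cells added with compounds (0.36-46 umol/L), incubated 2 h RT/16 h 37 C, fixed; GFP cells quantified at 488/509 nm.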
# Potency is the fitted concentration of half-maximal effect.
Compound,"activity change, negative = inhibition",outcome,Potency
CCOc1ccc(-c2noc(CSc3nnc(-c4ccccc4)n3-c3ccccc3)n2)cc1,inactive: -11.9%,–,–
O=C(CCn1c(=O)c2cccn2c2cccnc21)NCc1ccccc1Br,inactive: -0.939%,–,–
CC(=O)c1ccccc1NS(=O)(=O)c1cc2c(cc1C)NC(=O)CO2,inactive: -18.3%,–,–
CCN(CC)CCCNC(=O)CCCn1c(=O)[nH]c2ccc(Br)cc2c1=O,inactive: -20.6%,–,–
O=C(NCc1ccccc1Cl)c1cccn1-c1nnc(N2CCCCC2)s1,inactive: 31.7%,–,–
Cc1ccc(N(C)S(=O)(=O)c2ccc3c(c2)C(C)(C)C(=O)N3C)cc1C,–,inactive,–
CCC(C(=O)N1CCN(c2cc(Cl)ccc2C)CC1)n1nc(C)c2sc3ccccc3c2c1=O (stereo unspecified),–,inactive,–
COc1cccc(CNC(=O)CN2N=C(c3ccc(C)cc3)CCC2=O)c1,inactive: -1.96%,–,–
Cc1ccc(-n2nc(C(=O)N3CCN(c4ccccc4F)CC3)c3c4ccccc4n(C)c3c2=O)cc1,inactive: -8.36%,–,–
CC(C)CCNC(=O)c1ccc(Cn2c(SCC(=O)NC(C)C)nc3ccccc3c2=O)cc1,–,inactive,–
CC1C(=O)Nc2ccc(S(=O)(=O)Nc3ccccc3Br)cc2NC1=O (stereo unspecified),inactive: -7.66%,–,–
COc1cc(Cl)ccc1OC(=O)c1cn(-c2ccccc2OC)c(=O)c2ccccc12,inactive: 3.85%,–,–
CCC(=O)NC[C@H](Cc1ccc(OCCc2nc(-c3ccccc3)oc2C)cc1)NC(C)=CC(=O)c1ccc(C(F)(F)F)cc1,inactive: -14.4%,–,–
Cc1ccc(Cl)cc1N1CCN(C(=O)c2cccn2-c2nnc(N3CCCCC3)s2)CC1,–,inactive,–
Fc1cccc(Cl)c1CNc1n[nH]c(-c2ccco2)n1,inactive: -2.54%,–,–
COc1ccc2c(c1)c1c(c(=O)n(-c3ccccc3)c(=O)n1CC(=O)Nc1ccc(F)cc1)n2C,inactive: 9.65%,–,–
COc1ccc(N2CC(NC(=O)c3ccc4c(c3)OCO4)CC2=O)cc1OC (stereo unspecified),–,inactive,–
CCc1ccc(-n2c(SCC(=O)NC(C)CC)nc3n[nH]c(C)c3c2=N)cc1 (stereo unspecified),–,inactive,–
COc1ccc(NC(=O)Cc2csc(COc3cccc(C)c3)n2)cc1OC,inactive: -4.69%,–,–
Cc1ccc(C)c(S(=O)(=O)c2nnn3c2nc(NCc2cccs2)c2sccc23)c1,inactive: -1.11%,–,–
Cc1ccc2nc(Cl)c3cc(C(=O)NCCCN4CCC(C)CC4)sc3c2c1,inactive: 51.4%,–,–
Cc1c(-c2ccccc2)c(=O)oc2c(CN3CCN(C)CC3)c(O)ccc12,inactive: -18.4%,–,–
Cc1cc(NC(=O)c2ccc(-c3ccc(Br)cc3)o2)cc(-c2nc3ncccc3o2)c1O,–,inactive,–
COc1ccc(Cl)cc1C(=O)Nc1ccc2oc(-c3ccc(C(C)(C)C)cc3)nc2c1,inactive: 0.637%,–,–

Compound,"activity change, negative = inhibition",outcome,Potency
CCc1cc2c(cc3c(=O)n(CC(=O)N4CCCCC4)nc(CC)n32)s1,inactive: 3.27%,–,–
CCCn1ccc2c(OCC(=O)NCc3ccc(F)cc3)cccc2c1=O,–,inactive,–
CCCCN(C)CC(O)Cn1cc(/C=C/C(=O)c2ccc(OC)c(OC)c2)c2ccccc21 (stereo unspecified),inactive: -22.2%,–,–
COc1ccc(CNC(=O)Cn2nnc(-c3ccccc3F)n2)cc1,–,inactive,–
Cc1ccc(-c2nc(S(=O)(=O)c3ccc(Cl)cc3)c(N3CCCCC3)o2)cc1,inactive: -7.42%,–,–
Cc1cc2n(n1)CCCN2C(=O)Nc1ccc(Cl)cc1,inactive: -13.3%,–,–
NC12CC3CC(CC(C3)C1)C2,inactive: 4.04%,–,–
CC(C)c1nnc(NC(=O)c2nc(SCc3ccc(F)cc3)ncc2Cl)s1,inactive: 6.9%,–,–
CCCSC1=NC2(CCN(C(=O)NC3CCCCC3)CC2)N=C1c1ccccc1,inactive: 0.693%,–,–
CSc1ncc(Cl)c(C(=O)Nc2nc3ccc(F)cc3s2)n1,inactive: 11.6%,–,–
COc1cccc(NC(=O)CN(Cc2ccccc2)S(=O)(=O)c2ccc3nc(C)sc3c2)c1,inactive: -11.7%,–,–
CCCCc1nn2c(=O)cc(COC(=O)c3cccc(NC(=O)c4cccc(C)c4)c3)nc2s1,inactive: -9.47%,–,–
CCOC(=O)c1c(S(=O)(=O)NCC(=O)Nc2ccc(Cl)c(C(F)(F)F)c2)c(C)n(C)c1C,inactive: -0.594%,–,–
COc1ccc(OC)c(-c2nc(C(N)=O)c3c(n2)n(-c2ccc4c(c2)OCO4)c(=O)n3C)c1,inactive: 3.35%,–,–
Cc1nn(CCCC(=O)NCc2cccc(F)c2)c(=O)c2nn(-c3ccccc3)c(C)c12,inactive: 6.05%,–,–
CCOc1ccc(CNCc2c(C(=O)O)c(C)n(Cc3ccc(F)cc3Cl)c2C)cc1,inactive: 16.5%,–,–
CCN1CCN(C(=O)c2ccc3c(c2)N(Cc2ccccc2)C(=O)c2ccccc2S3=O)CC1 (stereo unspecified),–,inactive,–
CCCCN(CC)C(=O)CCn1c(=O)c2cccn2c2cccnc21,inactive: 26.4%,–,–
COc1ccccc1C(=O)c1c(N)c(-c2nc(-c3ccccc3)cs2)c2ccccn12,inactive: -6.22%,–,–
CCCN1CCN(c2ncc3c(n2)CCN(Cc2ccc(OC)c(OC)c2OC)C3)CC1,inactive: 7.71%,–,–
Cc1ccc(NC(=O)Cn2nc(-c3ccc(F)cc3)c3cnc4ccc(C)cc4c32)cc1,inactive: 3.62%,–,–
COc1ccccc1-c1noc(-c2ccc(N(C)Cc3ccccc3)c([N+](=O)[O-])c2)n1,inactive: 4.92%,–,–
Cc1ccc(CN2CCCn3nc(C(=O)NCc4ccccc4Cl)cc3C2=O)cc1,inactive: 12.1%,–,–
Cc1ccc(NC(=O)CN(C)S(=O)(=O)c2ccc3c(c2)CCC(=O)N3)c(C)c1,inactive: 1.35%,–,–

Compound,"activity change, negative = inhibition",outcome,Potency
CCCCNC(=O)CN1C(=O)CSc2ccc(S(=O)(=O)N3CCC(C)CC3)cc21,inactive: 5.13%,–,–
COc1cccc(CNc2ncc(-c3ccc(Br)cc3)n2C)c1,inactive: -11%,–,–
CC(C)N(C(=O)c1cc2c(Cl)nc3ccccc3c2s1)C1CCCCC1,inactive: -9.49%,–,–
COc1cccc2sc(N3CCN(C(=O)CS(=O)(=O)c4ccc(Cl)cc4)CC3)nc12,–,inactive,–
COc1ccc(-n2c(SCC(=O)Nc3nnc(C)s3)nc3c([nH]c4ccccc43)c2=O)cc1,–,inactive,–
CCOC(=O)c1scc(-c2ccc(C)cc2)c1S(=O)(=O)Nc1cccc(CC)c1,–,inactive,–
Cc1onc(-c2ccc(Br)cc2)c1C(=O)Nc1ccc(Br)cc1F,inactive: 0.444%,–,–
Cc1cc(C)c(S(=O)(=O)N2CCN(Cc3nc4ccc(C)cc4o3)CC2)c(C)c1,inactive: -21.4%,–,–
CC1=C(C(=O)Nc2cc(C)ccc2C)C2(CCCCCC2)OC1=O,–,inactive,–
CCN1C(C(=O)c2ccccc2)=C(OC(=O)COc2ccccc2)c2ccccc2S1(=O)=O,–,inactive,–
O=C(NCCCN1CCN(c2ccccc2)CC1)c1nnc(Cc2ccc(F)cc2)o1,inactive: -8.49%,–,–
CCOc1ccc(NC(=O)Cn2cc(C(=O)c3ccc(C)cc3)c(=O)c3cc4c(cc32)OCCO4)cc1,–,inactive,–
O=C(O)CC(NS(=O)(=O)c1ccc(Br)s1)c1ccccc1 (stereo unspecified),inactive: 3.57%,–,–
CCOC(=O)c1ccccc1Nc1cc(C)nc2nc(-c3ccco3)nn12,inactive: -9.59%,–,–
Cc1cccc(C(=O)Nc2cc3c(cc2N2CCOCC2)n(C)c(=O)n3C)c1,inactive: -9.65%,–,–
CC(=O)c1ccc(C(=O)N(Cc2cccnc2)c2nc3c(Cl)cccc3s2)cc1,inactive: -0.132%,–,–
COc1cc2c(cc1OC)C(COc1ccc(F)cc1)N(C(=O)c1ccccc1F)CC2 (stereo unspecified),inactive: -28.4%,–,–
CSc1cccc(NC(=O)Cn2nc(C)c3sc4ccccc4c3c2=O)c1,inactive: 4.38%,–,–
Cc1cccc(-c2nnc(SCC(=O)N3CCCc4ccccc43)o2)c1,inactive: -0.745%,–,–
COc1ccc(-n2c(C)nc3cc(C(=O)NC4CCCC4)ccc32)cc1,inactive: 1.54%,–,–
Cc1ccc(N2CCN(S(=O)(=O)c3ccc4oc(=O)c5ncn(C)c5c4c3)CC2)c(C)c1,inactive: 19.2%,–,–
CCOCCCNC(=O)Nc1cc(C(=O)NCc2ccc(C(C)C)cc2)ccc1N1CCCC1,inactive: 0.449%,–,–
CC(C)OCCCN(C)C1CCN(S(=O)(=O)c2csc(C(N)=O)c2)CC1,inactive: 39.3%,–,–
Cn1nnnc1SCCNCc1ccccc1OCc1ccc(Cl)cc1Cl,inactive: -6.4%,–,–

Compound,"activity change, negative = inhibition",outcome,Potency
Cc1cccc(CS(=O)(=O)c2ncc(Cl)c(C(=O)Nc3nc4ccc(F)cc4s3)n2)c1,–,inactive,–
COC(=O)C(C)NC(=O)N1CCN(c2nnc(C)c3c(C)n(-c4ccc(Cl)cc4)nc23)CC1 (stereo unspecified),inactive: 2.84%,–,–
Cc1ccc(S(=O)(=O)c2nnn3c2nc(NCc2cccs2)c2sccc23)cc1C,–,inactive,–
Cc1cc(C)cc(NC(=O)C2CCN(c3cc(C)nc4c(-c5ccc(Cl)cc5)c(C)nn34)CC2)c1,inactive: -5.23%,–,–
O=C(Cc1ccc(F)cc1)NCCc1csc(-c2cccc(F)c2)n1,inactive: 7.89%,–,–
CO[C@@H](C(=O)N1Cc2[nH]nc(NC(=O)c3ccc(N4CCN(C)CC4)cc3)c2C1)c1ccccc1,–,–,active: 13.2 µM
CCOc1ccc(N(CC)S(=O)(=O)N2CCCC(C(=O)NCc3ccc(Cl)cc3)C2)cc1 (stereo unspecified),inactive: 4.29%,–,–
CC(C)NC(=O)N1CCC(N2CCN(Cc3ccc(F)cc3)C(=O)C2=O)CC1,inactive: -0.329%,–,–
CN1CCN(C2=Nc3cc(Cl)ccc3Nc3ccccc32)CC1,inactive: -12.8%,–,–
COc1ccc(-c2noc(Cn3c(=O)c4ccccc4n(CC(=O)Nc4cccc(C(F)(F)F)c4)c3=O)n2)cc1,inactive: -6.74%,–,–
Cc1ccc(C)c(NS(=O)(=O)c2ccc3c(c2)n(C)c(=O)n3C)c1,inactive: 2.36%,–,–
Cc1oc(-c2cccc(Br)c2)nc1Cn1c(=O)cc(-c2ccccc2)c2c(C)nn(C)c21,inactive: 0.329%,–,–
O=S(=O)(Nc1cccc(-c2ccc(N3CCCCCC3)nn2)c1)c1ccccc1,–,inactive,–
CCn1c(SCC(=O)N2CCC(C)CC2)nnc1-c1ccccc1O,inactive: -16.5%,–,–
CCc1nc2onc(C)c2c(=O)n1CC(=O)O,–,inactive,–
O=C(c1cccc(Cl)c1)N(Cc1ccco1)Cc1ccccc1Cl,inactive: -6.87%,–,–
Cc1ccc(S(=O)(=O)NCCc2sc3nc(-c4ccccc4)nn3c2C)cc1C,–,inactive,–
COc1ccc2c(c1)c1c(c(=O)n(Cc3ccccc3)c(=O)n1CC(=O)Nc1c(C)cccc1C)n2C,inactive: -2.6%,–,–
Cc1ccccc1-c1nc(CS(=O)(=O)CC(=O)Nc2cccc(C(F)(F)F)c2)c(C)o1,–,inactive,–
COc1ccc(Cn2c(=O)[nH]c3cc(C(=O)N4CCN(c5ccccc5)CC4)ccc3c2=O)cc1,–,inactive,–
Cc1ccc(CNC(=O)CCC(=O)N2Cc3ccccc3Oc3ncccc32)cc1,inactive: -11.7%,–,–
COc1ccc(OC)c(CCNc2nccn(-c3ccc(C)c(C)c3)c2=O)c1,inactive: -2.44%,–,–
CCCn1ccc2c(OCC(=O)Nc3ccccc3OCC)cccc2c1=O,inactive: 0.955%,–,–
Cn1c(SCc2cccc(F)c2)nc2c([nH]c3ccccc32)c1=O,–,inactive,–
